Measurements: PubChem BioAssay AID463173 (ICCB-Longwood Screening Facility, Harvard Medical School, 2010)
In all, about 52,000 compounds went through this assay and about 1,700 (3.3%) were called active. Rule as the data show it: active = survival mostly below about 52% (no sharp cut-off); inactive = mostly above about 56%. The list shows a part of the results.

The molecules below were run on Wild type (assay: growth inhibition of S. aureus wild type versus tarO mutant, primary screen, teichoic acid synthesis inhibitors, RN4220, OD600 (AID 463173)). Settings: S. aureus RN4220 wild type/DeltatarO growth, OD600, 18 h, active compounds read low, screened at 18.75 µg/mL (by protocol).

| Structure (SMILES) | survival |
| --- | --- |
| COc1ccc(C2=C(C(C)=O)Sc3nnc(-c4ccc(C)cc4)n3N2C(C)=O)cc1OC | inactive: 76% |
| CC(=O)N(CC(C)C)c1nnc(-c2cccnc2)s1 | inactive: 102% |
| COc1ccccc1CNc1ccc(-c2nc(-c3ccccn3)no2)cc1[N+](=O)[O-] | inactive: 77% |
| O=C(NCc1ccc(F)cc1)c1c2c(nc3ccccc13)C(=O)N(C1CCCCC1)C2 | inactive: 99% |
| COc1ccc(OC)c(NC(=O)CCNS(=O)(=O)c2cccc3nsnc23)c1 | inactive: 66% |
| Cc1cccc(CCNC(=O)C2CCC(CNS(=O)(=O)c3c(C)cc(C)cc3C)CC2)c1 (configuration not stated) | inactive: 59% |
| O=C(Cc1ccc(NC(=O)N2CCCCc3ccccc32)cc1)NCc1ccccc1Br | inactive: 78% |
| Clc1nc(Cl)nc(OCCCOc2nc(Cl)nc(Cl)n2)n1 | inactive: 107% |
| COc1cc(Cl)c(C)cc1NC(=O)Cn1cc(S(=O)(=O)N2CCN(c3ccccc3F)CC2)c2ccccc2c1=O | inactive: 68% |
| CCc1ccc(NC(=O)CSc2nc3n[nH]c(C)c3c(=N)n2-c2ccc(C)cc2)cc1 | inactive: 159% |
| O=C(CCC1N=C2c3ccccc3N=C(SCC(=O)Nc3ccccc3F)N2C1=O)NCc1ccco1 (configuration not stated) | inactive: 82% |
| Nc1ccc2nc(C(F)(F)F)[nH]c2c1 | inactive: 106% |
| Cc1cccc(NS(=O)(=O)c2ccc3[nH]c(=O)[nH]c3c2)c1C | inactive: 71% |
| Cc1cccc(N2CCN(CC(=O)NCc3cccs3)CC2)c1C | inactive: 115% |
| N#Cc1ccc(OC(=O)c2cc(-c3ccc(Cl)cc3)on2)cc1 | inactive: 94% |
| Cc1ccc(NC(=O)CN(C)S(=O)(=O)c2ccc3c(c2)n(C)c(=O)c(=O)n3C)c(C)c1 | inactive: 77% |
| CCc1ccc(CN2C(=O)c3ccccc3C2C(=O)NC2CCCCCC2)cc1 (configuration not stated) | inactive: 88% |
| CC(C)(C)C(=O)Nc1ccc(-c2nc3ccccc3s2)cc1 | inactive: 87% |
| CCOc1ccc(-c2c(C)nn3c(C)c(C(=O)NCc4cccc(OC)c4)cnc23)cc1OCC | inactive: 73% |

| Structure (SMILES) | survival |
| --- | --- |
| CCC1C(=O)NN=C1C (configuration not stated) | inactive: 90% |
| CONc1nc(NC(C)(C)C)nc(OCC#N)n1 | inactive: 102% |
| COc1ccc(-n2ncc(C(=O)N3CCN(Cc4ccccc4)CC3)c2C2CCN(C(=O)OC(C)(C)C)CC2)cc1 | inactive: 57% |
| CCOc1cc(C(=O)N(Cc2nc(-c3ccc(C)cc3)no2)C(C)C)cc(OCC)c1OCC | active: 15% |
| COc1cc(NC(=O)c2ccco2)c(OC)cc1NC(=O)CCC(=O)NC1CCN(Cc2ccccc2)CC1 | inactive: 114% |
| CCc1cnc2c(c1SCc1c(F)cccc1Cl)c(=O)n(C)c(=O)n2C | inactive: 72% |
| CCc1ccccc1Nc1nn2c(=O)c3ccc(C(=O)NC4CCC(C)CC4)cc3nc2s1 (configuration not stated) | inactive: 80% |
| CC(=O)Nc1ccc(S(=O)(=O)NCc2ccc3c(c2)CCN3C(C)=O)cc1 | inactive: 113% |
| Cc1oc(-c2ccccc2)nc1Cn1c(SCc2cccc(C(F)(F)F)c2)nc2cccnc21 | inactive: 83% |
| COc1ccc(CCNC(=O)CCCn2c(=O)c3ccccc3n(CC(=O)Nc3cccc(C)c3)c2=O)cc1OC | inactive: 92% |
| CCOC(=O)c1c(NC(=O)c2ccc(S(=O)(=O)N3CCC(C)CC3)cc2)sc2c1CCN(C(C)C)C2 | inactive: 92% |
| NC(=O)Cn1nnc(-c2ccccc2N)n1 | inactive: 104% |
| Cc1nn(C(=O)COc2ccc(Cl)cc2)c(C)c1Sc1ccccc1 | inactive: 88% |
| CCOC(=O)c1ccc(NC(=O)CC2C(=O)N(c3ccccc3)C(=O)N2Cc2ccc(C)cc2)cc1 (configuration not stated) | inactive: 58% |
| O=C(NCC1CCCO1)C12CC3CC(CC(C3)C1)C2 (configuration not stated) | inactive: 103% |
| COC(=O)c1ccc(Cl)cc1NC(=O)N1CC2CCCN2c2ccccc21 (configuration not stated) | inactive: 82% |
| COc1ccc(S(=O)(=O)NCc2ccc3c(c2)CCN3C(=O)c2ccccc2)cc1OC | inactive: 75% |
| Cc1cc(Nc2ccccc2F)n2nc(-c3ccccc3)nc2n1 | inactive: 84% |
| CCOc1ccc(Nc2oc(-c3ccc(COc4ccc(OC)cc4)o3)nc2C#N)cc1 | inactive: 83% |

| Structure (SMILES) | survival |
| --- | --- |
| CCOC(=O)C1CCN(c2cc3c(cc2NC(=O)c2ccc(Cl)cc2)n(C)c(=O)n3C)CC1 | inactive: 88% |
| COc1ccc(NC(=O)CN2C(=O)CCn3nc(-c4cccn4C)cc32)cc1 | inactive: 55% |
| Cc1cc(C)c(Nc2nc3ccccc3n3c(C)nnc23)c(C)c1 | inactive: 99% |
| COc1ccccc1OCCn1c(NC(=O)c2ccccc2Cl)nc2ccccc21 | active: -10% |
| Cc1ccc(NC(=O)C(=O)NCC(c2cccnc2)N2CCN(Cc3ccccc3)CC2)cc1C (configuration not stated) | inactive: 89% |
| O=C1CNC(=O)c2c(nc3n2CCC3)N1 | inactive: 104% |
| CCN(CC)C(=O)Cn1c(=O)cc(C)c2c(C)nn(-c3cccc(Cl)c3C)c21 | inactive: 85% |
| COc1cccc(CNC(=O)C2CCC(CNS(=O)(=O)c3ccc4c(c3)CCCC(=O)N4)CC2)c1 (configuration not stated) | inactive: 128% |
| Cc1ccc(NC(=O)CSc2nnc3scc(-c4ccc(Cl)cc4)n23)cc1 | inactive: 72% |
| CCOc1ccc(-c2cc(C(=O)N3CCN(c4cc(Cl)ccc4C)CC3)c3ccccc3n2)cc1 | inactive: 49% |
| CNc1c(NC(=O)c2ccc(OC)c(OC)c2)c(=O)oc2ccccc12 | inactive: 78% |
| CCC(=O)n1c2c(c3ccccc31)Nc1ccccc1N2 | inactive: 105% |
| Cc1ccc(Nc2nc3nonc3nc2Nc2cccc(C(F)(F)F)c2)cc1Cl | active: 0% |
| CCOC(=O)C1=C(CN2CCN(c3ccc(OC)cc3)CC2)NC(=O)NC1c1ccc(OC)cc1 (configuration not stated) | inactive: 131% |
| CCN(CC)CCCNc1oc(/C=C/c2ccc(OC)c(OC)c2)nc1C#N | inactive: 88% |
| COc1ccc(NC(=O)Cn2cc(S(=O)(=O)N3CCN(c4ccccc4F)CC3)c3ccccc3c2=O)cc1Cl | inactive: 100% |
| CCOc1ccc2nc(SCC(=O)NCC3CCCO3)c(C#N)cc2c1 (configuration not stated) | inactive: 101% |
| Cc1cc2c(cc1S(=O)(=O)CCC(=O)N1CCC(C)CC1)OCC(=O)N2 | inactive: 110% |
| CCc1ccc(C(=O)c2cn(CC(=O)Nc3ccc4c(c3)OCO4)c3ccc(CC)cc3c2=O)cc1 | inactive: 96% |
